The full ranking holds about 33,000 sequences; the median of “E-score (-0.5 to 0.5)” is about -0.054, and the highest 2% start at about 0.35. The list shows a part of the results.
target: T1, Stb5 (UniProt P38699); test: PBM E-score (8-mer binding enrichment) (E-score (-0.5 to 0.5)); higher = stronger / more preferred TF binding; most listed sequences are background and not binding sites; details: protein concentration: 200 nM; construct: GST-full length
T1 sequence: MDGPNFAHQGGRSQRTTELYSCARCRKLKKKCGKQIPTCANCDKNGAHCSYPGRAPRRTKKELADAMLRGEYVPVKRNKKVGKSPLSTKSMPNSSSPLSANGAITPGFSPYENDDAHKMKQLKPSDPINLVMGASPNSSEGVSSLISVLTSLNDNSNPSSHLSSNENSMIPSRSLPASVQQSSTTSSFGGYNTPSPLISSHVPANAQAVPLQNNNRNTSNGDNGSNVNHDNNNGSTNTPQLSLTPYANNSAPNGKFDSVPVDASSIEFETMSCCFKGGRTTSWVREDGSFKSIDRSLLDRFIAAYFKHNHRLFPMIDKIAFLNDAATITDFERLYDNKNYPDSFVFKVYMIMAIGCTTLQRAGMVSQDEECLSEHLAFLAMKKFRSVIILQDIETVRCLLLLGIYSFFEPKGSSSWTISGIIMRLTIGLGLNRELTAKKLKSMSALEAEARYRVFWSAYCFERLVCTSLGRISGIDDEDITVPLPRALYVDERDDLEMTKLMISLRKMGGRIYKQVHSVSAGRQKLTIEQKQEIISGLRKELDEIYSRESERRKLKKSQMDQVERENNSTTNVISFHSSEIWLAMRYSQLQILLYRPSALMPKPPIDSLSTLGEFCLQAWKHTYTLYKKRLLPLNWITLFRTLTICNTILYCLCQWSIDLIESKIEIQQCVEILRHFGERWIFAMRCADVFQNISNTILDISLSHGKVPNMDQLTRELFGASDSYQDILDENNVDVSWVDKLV
Experimental: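 Universal 'all 10-mer' protein binding microarrays (Agilent AMADID 015681) probed with GST-tagged S. cerevisiae TFs (full-length or DBD) made by in vitro transcription/translation (PURExpress), about 100-200 nM. Bound TF was detected with fluorescent anti-GST. Each ungapped 8-mer (which stands for itself and its reverse complement) is scored by the PBM enrichment score (E-score), a modified Wilcoxon-Mann-Whitney statistic from -0.5 to +0.5, computed with the Universal PBM Analysis Suite. Scale: above 0.35 generally sequence-specific binding.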

Sequence	PBM E-score
ATTGGTAG	-0.0955
ATCCCGAC	0.39
AAAAGCAA	-0.148
GGTAAGTA	-0.00068
GCCGTAGA	0.0993
ACCGATAC	0.28
ACAAGACA	-0.159
AGGGGCAG	-0.286
AATAGCAA	-0.0528
CGTAGTAG	-0.0278
ATACGGAG	0.201
ATTTCGAG	-0.128
GCTTCTTA	0.0369
GAATCGCA	0.00579
CGTAGCGC	0.0794
ATGCGTTA	-0.0824
GGTCTTTA	0.282
ATGCGAAC	0.064
AATCGAGA	-0.219
ATCGTTAG	-0.0801
CATTTACG	-0.131
CCGCGCTC	0.227

Sequence	PBM E-score
AACCTGCT	-0.029
AGAATTAG	-0.205
GTTTGTCA	-0.102
ATGCCTAC	-0.219
TGAAGCAA	-0.0466
CCTGACTA	-0.138
ATAATCTC	-0.0165
GCAACCGA	-0.144
GGATGTGA	-0.109
AATAGTGG	-0.138
TCTAAGCA	-0.0121
AAAAATCT	-0.15
GGAATTCC	-0.0709
GAACCCGC	0.199
AACGAGGA	-0.126
AGAGTTAA	-0.131
CGGTCGGC	0.352
AACCCGTG	-0.0372
AACTTGCC	-0.0885
CGAAGTTC	-0.147
GAACTCGA	-0.163
AGAAAAGA	-0.0868

Sequence	PBM E-score
CACCAATG	0.0086
AGAGTCGG	0.252
TCTACGCA	-0.141
CCGATGGA	0.307
GAAGACAC	0.161
CGTTTAAA	0.185
AATGCACG	0.031
AGTTTAGC	0.0316
CAGTTTAC	-0.261
GACCTCGC	-0.00357
CAAAATCC	0.182
ATAACCAA	-0.156
ATAATCCC	0.389
AAGTCACG	0.0981
AGCCACAA	0.0182
CACAGCAA	0.0324
ACTGCTAT	-0.214
CGACTCAA	-0.0531
GTCCCCGA	0.185
CGACGTAA	0.0466
ACCGGTAT	0.336
CGGTAAAC	0.0925

Sequence	PBM E-score
AATGGCGC	0.118
AAGGTGGA	-0.0638
AGACATCG	-0.183
ATCCTGAA	-0.247
ATGCCAAA	-0.218
CGATTACA	0.0159
TACCATCA	-0.228
ATAATAAA	0.179
CGCTTTGA	0.0497
AGGGGACC	-0.0462
GCCTACTA	-0.173
ATTAGTTG	-0.148
CTAATACC	0.261
ACTAGTCC	0.122
AACTCGCG	-0.0104
GGGTAAGA	0.00203
GCGCAAGC	-0.0451
ACACCAGC	-0.14
ACGCTTAA	-0.31
TAGACTCA	-0.131

— the supplement of paper PMC3334620
